Measured values as given in patent publication US20230225323A1, “COMPOSITIONS AND METHODS FOR PARASITE CONTROL” (Philip Morris Products S.A., priority 2020, published 2023).
Where a name gives a salt, the structure may show the parent alone. At least one read-out could not be matched to a standard name with certainty.

How the values were obtained:
Assay type in all cases: in vivo
[1] = system: Rhipicephalus sanguineus tick larvae; test: Acaricidal (knockdown) activity, motility reduction over 8 minutes in the same arena; settings: % motility reduction between beginning and end of 8 minutes
[2] = system: Rhipicephalus sanguineus tick larvae; test: Tick repellency assay (treated quadrant of circular arena, tick movements); settings: (1−MT/MU)×100, measured for 2 minutes after 1 minute
[3] = system: adult Aedes aegypti mosquitoes; test: Mosquito repellency assay on treated warm surface (landings and probing time); settings: for Mean probing time on warm-body (% compared to control): time spent on warm surface as % of vehicle control, 100% = same time as control; for Mean repellency (% compared to control): reduction of landings vs vehicle solvent, 100% = no landings, triplicates
[4] = 28.1 μmol/m^2 on treated quadrant
[5] = 89 μmol/m^2 on treated quadrant

Structure (SMILES)	Knockdown activity (%) ([1]; 28.1 μmol/m^2)	Knockdown activity (%) ([1]; 89 μmol/m^2)	also measured
C1=C[C@H]2CC[C@@H]1N[C@H]2c1cccnc1 (relative stereo) [endo-3-(3-pyridyl)-2-azabicyclo[2.2.2]oct-5-ene]	15.67	73.07	–
C1=C[C@H]2CC[C@@H]1N[C@@H]2c1cccnc1 (relative stereo) [exo-3-(3-pyridyl)-2-azabicyclo[2.2.2]oct-5-ene]	18.67	41.93	–
Clc1cc(C2CC=CCN2)cnc1Cl (stereo not shown) [2,3-dichloro-5-(1,2,3,6-tetrahydropyridin-2-yl)pyridine dihydrochloride]	0.00	2.50	–
C1=CCC(c2cncc(N3CC4CC3CN4)c2)NC1 (stereo not shown) [2-[5-(1,2,3,6-tetrahydropyridin-2-yl)-3-pyridyl]-2,5-diazabicyclo[2.2.1]heptane dihydrochloride]	0.00	0.00	–
Clc1ccc(C2CC=CCN2)cn1 (stereo not shown) [2-chloro-5-(1,2,3,6-tetrahydropyridin-2-yl)pyridine dihydrochloride]	0.00	0.00	–
C#Cc1ccc(C2=CCNC(c3cccnc3)C2)cn1 (stereo not shown) [2-ethynyl-5-[2-(3-pyridyl)-1,2,3,6-tetrahydropyridin-4-yl]pyridine]	3.33	1.20	–
CN1C2C=CC(CC2)C1c1cccnc1 (stereo not shown) [2-methyl-3-(3-pyridinyl)-2-azabicyclo[2.2.2]oct-5-ene]	0.00	0.00	–
CN1C2CCC(CC2)C1c1cccnc1 (stereo not shown) [2-methyl-3-(3-pyridyl)-2-azabicyclo[2.2.2]octane]	0.00	6.70	–
CN1C2CCC(CC2)C1c1ccc(-c2ccccc2)nc1 (stereo not shown) [2-methyl-3-(6-phenyl-3-pyridyl)-2-azabicyclo[2.2.2]octane hydrochloride]	0.00	7.20	–
CN1CC2CCC1C=C2c1cccnc1 (stereo not shown) [2-methyl-5-(3-pyridyl)-2-azabicyclo[2.2.2]oct-5-ene]	0.00	3.53	–
CN1CC2C=CC1C(c1cccnc1)C2 (stereo not shown) [2-methyl-7-(3-pyridyl)-2-azabicyclo[2.2.2]oct-5-ene]	6.77	4.63	–
C1=CCC(c2ccc(-c3ccccc3)nc2)NC1 (stereo not shown) [2-phenyl-5-(1,2,3,6-tetrahydropyridin-2-yl)pyridine dihydrochloride]	0.00	0.00	–
C1=CCC(c2cccnc2)NC1 (stereo not shown) [3-(1,2,3,6-tetrahydropyridin-2-yl)pyridine]	10.47	45.23	Mean repellency (%) [2, 4]: 15.10%; Mean repellency (%) [2, 5]: 66.63%; Mean probing time on warm-body (% compared to control) ([3]; 75 μmol/m^2): 29.86%; Mean repellency (% compared to control) ([3]; 75 μmol/m^2 on warm surface): 81.53%
C1=CC(c2cccnc2)NCC1 (stereo not shown) [3-(1,2,3,6-tetrahydropyridin-6-yl)pyridine dihydrochloride]	0.00	0.00	Mean repellency (%) [2, 4]: 37.33%; Mean repellency (%) [2, 5]: 50.40%; Mean probing time on warm-body (% compared to control) ([3]; 23.7 μmol/m^2): 54.70%; Mean repellency (% compared to control) ([3]; 23.7 μmol/m^2 on warm surface): 46.46%
c1cncc(OCC2CCCCN2)c1 (stereo not shown) [3-(2-piperidylmethoxy)pyridine]	0.00	14.37	–
CN1C2C=CC(CC2)C1c1ccc(Cl)nc1 (stereo not shown) [3-(6-chloro-3-pyridyl)-2-methyl-2-azabicyclo[2.2.2]oct-5-ene]	0.00	0.00	–
CN1C2CCC(CC2)C1c1ccc(Cl)nc1 (stereo not shown) [3-(6-chloro-3-pyridyl)-2-methyl-2-azabicyclo[2.2.2]octane]	0.00	0.00	–
C1=C(c2cccnc2)C[C@@H](c2cccnc2)NC1 [3-[(2S)-2-(3-pyridyl)-1,2,3,6-tetrahydropyridin-4-yl]pyridine dihydrochloride]	1.63	0.00	–
C1=C(c2ccccc2)C[C@@H](c2cccnc2)NC1 [3-[(2S)-4-phenyl-1,2,3,6-tetrahydropyridin-2-yl]pyridine dihydrochloride]	0.00	0.00	–
C1=CC[C@@H](COc2cccnc2)NC1 [3-[[(2S)-1,2,3,6-tetrahydropyridin-2-yl]methoxy]pyridine]	3.37	6.27	–
C#Cc1cncc(C2CC=CCN2)c1 (stereo not shown) [3-ethynyl-5-(1,2,3,6-tetrahydropyridin-2-yl)pyridine dihydrochloride]	0.00	0.00	–
C1=C(c2cccnc2)C2CCC1NC2 (stereo not shown) [5-(3-pyridyl)-2-azabicyclo[2.2.2]oct-5-ene]	0.00	2.83	–
Clc1ccc(C2=CC3CCC2CN3)cn1 (stereo not shown) [5-(6-chloro-3-pyridyl)-2-azabicyclo[2.2.2]oct-5-ene hydrochloride]	0.00	6.40	–
CN1CC2CCC1C=C2c1ccc(Cl)nc1 (stereo not shown) [5-(6-chloro-3-pyridyl)-2-methyl-2-azabicyclo[2.2.2]oct-5-ene]	0.00	2.40	–
C1=CC2NCC1CC2c1cccnc1 (stereo not shown) [7-(3-pyridyl)-2-azabicyclo[2.2.2]oct-5-ene]	1.57	9.27	–
Clc1ccc(C2CC3C=CC2NC3)cn1 (stereo not shown) [7-(6-chloro-3-pyridyl)-2-azabicyclo[2.2.2]oct-5-ene]	0.00	4.93	–
CN1CC2C=CC1C(c1ccc(Cl)nc1)C2 (stereo not shown) [7-(6-chloro-3-pyridyl)-2-methyl-2-azabicyclo[2.2.2]oct-5-ene]	7.40	3.57	–
CCOc1ccc(C2CC3C=CC2N(C)C3)cn1 (stereo not shown) [7-(6-ethoxypyridin-3-yl)-2-methyl-2-azabicyclo[2.2.2]oct-5-ene]	17.90	15.73	–
